Among all 39,000 compounds or so, about 220 (0.56%) showed activity. The list shows a part of the results.
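Note: static incubation at 37 °C against the wild-type strain, values averaged over two biological replicates.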

In this assay the test system is Escherichia coli K-12 BW25113. Description: relative growth (OD600 normalised to plate interquartile mean) (fraction); higher = less growth inhibition, active = 0.2 or less. To be noted: 50 µM; LB; incubation time: overnight (16-24 h).
For `C[C@@H]1CN([C@@H](C)CO)S(=O)(=O)c2ccc(C#CCN(C)C)cc2O[C@@H]1CN(C)Cc1ccc2c(c1)OCO2`, the relative growth was inactive: 1. Next, `CC(=O)c1ccn[nH]1`: inactive: 1.01; `NC(Cc1cc(I)c(Oc2ccc(O)c(I)c2)c(I)c1)C(=O)[O-].[Na+]` [LIOTHYRONINE (L- isomer) SODIUM]: inactive: 0.951; `CO[C@@H](CN(C)S(=O)(=O)c1ccc(Cl)cc1)[C@@H](C)CN([C@@H](C)CO)S(=O)(=O)c1cccc(Cl)c1`: inactive: 1.02. On to `C[C@@H]1CN([C@@H](C)CO)C(=O)c2cc(C#CCC3CCCC3)cnc2O[C@H]1CN(C)C(=O)c1cnccn1`, for which the relative growth is inactive: 0.877. As for `C[C@@H]1CCCCO[C@H](CN(C)C(=O)c2ccccc2)[C@H](C)CN([C@@H](C)CO)C(=O)c2cc(NC(=O)c3ccccc3)ccc2O1`, the figure is inactive: 0.983.

In the case of `Cc1cc(C(=O)Nc2cccc3c2O[C@H](CN(C)Cc2ccncc2)[C@H](C)CN([C@@H](C)CO)C3=O)n(C)n1`, the relative growth is inactive: 1.01. Next, `Cc1ccc(S(=O)(=O)Nc2ccc3c(c2)C(=O)N([C@H](C)CO)C[C@H](C)[C@@H](CN(C)S(=O)(=O)c2ccc(Cl)cc2)OCCCC[C@@H](C)O3)cc1`: inactive: 0.993; `CO[C@@H]1CN(C)C(=O)c2ccc(NC(=O)Nc3cccc(Cl)c3)cc2OC[C@H](C)N(C(=O)Nc2c(C)noc2C)C[C@H]1C`: inactive: 1.02; `COc1cccc(S(=O)(=O)N(C)C[C@H]2Oc3ncc(C#CC(C)C)cc3C(=O)N([C@@H](C)CO)C[C@H]2C)c1`: inactive: 1.

On to `C[C@@H]1CN([C@H](C)CO)C(=O)c2cccc(NS(=O)(=O)c3cn(C)cn3)c2O[C@@H]1CN(C)CC1CC1`, for which the relative growth was inactive: 0.989.

Regarding `Cc1ccc(S(=O)(=O)Nc2ccc3c(c2)C(=O)N([C@H](C)CO)C[C@@H](C)[C@@H](CN(C)C(=O)Nc2ccc4c(c2)OCO4)OCCCC[C@H](C)O3)cc1`, the relative growth is inactive: 0.976. As for `CN1CCN(C(=O)C[C@@H]2C[C@H]3c4cc(NS(=O)(=O)c5ccc(F)cc5)ccc4O[C@H]3[C@@H](CO)O2)CC1`, the relative growth was inactive: 1.

As to `C[C@H](O)C#Cc1cnc2c(c1)C(=O)N([C@H](C)CO)C[C@H](C)[C@@H](CN(C)C(=O)CN1CCOCC1)O2`, the relative growth was inactive: 0.996. For the compound `C[C@H]1CN([C@@H](C)CO)C(=O)c2cc(NC(=O)Cc3ccccc3)ccc2O[C@@H]1CN(C)S(=O)(=O)c1ccccc1`, the relative growth is inactive: 0.959.

As to `CCS(=O)(=O)N1C[C@]2(CN(Cc3ccc4c(c3)OCO4)[C@H](CO)c3c2c2ccc(cc2n3C)OC)C1`, the relative growth is inactive: 1.02.

`Cn1c(=O)n2n(c1=O)[C@H](C1CC1)C=C1CN3[C@@H]([C@H](Cc4ccccc4)OC(=O)[C@@H]3Cc3ccc(-n4cc(CCC(=O)NO)nn4)cc3)[C@@H]12`: the relative growth is inactive: 0.987. Consider `O=C1OCC=C[C@H]2O[C@@]34C=CCN(CCN5CCOCC5)C(=O)[C@H]3N(CCCO)C(=O)[C@@H]4[C@@H]12`, for which the relative growth was inactive: 0.987. Take `CC(C)C#Cc1ccc2c(c1)O[C@@H](CN(C)C(=O)Cc1ccccn1)[C@H](C)CN([C@@H](C)CO)S2(=O)=O`: the relative growth is inactive: 1.02.

On to `C[C@H]1CN([C@@H](C)CO)C(=O)c2cc(-c3cccc(C(=O)N(C)C)c3)cnc2O[C@H]1CN(C)S(=O)(=O)c1ccccc1`, for which the relative growth is inactive: 0.993.

`C[C@H]1CN([C@@H](C)CO)C(=O)c2c(c3ccccc3n2C)-c2ccccc2CO[C@@H]1CN(C)C(=O)c1cc(Cl)cc(Cl)c1`: the relative growth was inactive: 1.01. Next, `O=c1cc[nH]c(=O)[nH]1`: inactive: 1.15. As for `NCc1cc2ccc(F)cc2[nH]c1=O`, the figure is inactive: 1; as for `CO[C@H]1CN(C)C(=O)c2cc(NS(C)(=O)=O)ccc2OC[C@H](C)N(S(C)(=O)=O)C[C@H]1C`, inactive: 1.01. On to `C[C@H]1CN([C@@H](C)CO)C(=O)c2ccccc2-c2ccccc2CO[C@H]1CN(C)Cc1ccc(-c2ccccc2)cc1`, for which the relative growth is inactive: 0.998. Next, `C[C@H](CO)N1C[C@H](C)[C@H](CN(C)C(=O)c2ccccc2)OCCCC[C@H](C)Oc2ccc(NC(=O)Nc3ccccc3)cc2C1=O`: inactive: 0.999; `CNC(=O)[C@H]1C[C@H]2CCN(S(=O)(=O)N(C)C)C[C@H]2O1`: inactive: 0.966. Next, `Cc1ccc(Nc2ncc3c(n2)N(C)C(=O)N(c2cc(NC(=O)c4cccc(C(F)(F)F)c4)ccc2C)C3)cn1`: inactive: 1.08; `Cc1noc(C)c1NC(=O)Nc1cccc2c1O[C@@H](CN(C)C(=O)NC(C)C)[C@H](C)CN([C@H](C)CO)C2=O`: inactive: 0.987; `C[C@@H]1CN([C@@H](C)CO)C(=O)c2cc(NS(C)(=O)=O)ccc2O[C@@H]1CN(C)S(=O)(=O)c1cccs1`: inactive: 0.999. Next, `Cc1ccc(S(=O)(=O)N(C)C[C@H]2Oc3ccc(NS(=O)(=O)c4c(C)noc4C)cc3CC(=O)N([C@@H](C)CO)C[C@H]2C)cc1`: inactive: 0.989; `C[C@@H](CC(=O)O)n1ccnc1`: inactive: 1.02. As to `C[C@@H]1CCCCO[C@H](CN(C)C(=O)Nc2ccc3c(c2)OCO3)[C@@H](C)CN([C@H](C)CO)C(=O)c2cc(NC(=O)NC3CCCCC3)ccc2O1`, the relative growth is inactive: 0.977.

As to `C[C@H]1CN([C@@H](C)CO)C(=O)c2cccc(NC(=O)c3ccncc3)c2O[C@@H]1CN(C)S(=O)(=O)c1cccs1`, the relative growth is inactive: 1.02. As for `C[C@@H]1CN([C@H](C)CO)C(=O)c2cc(NC(=O)Nc3ccccc3)ccc2O[C@@H](C)CCCCO[C@H]1CN(C)Cc1ccncc1`, the relative growth was inactive: 1.01. As for `CC(C)(C)[S@@](=O)N1Cc2cc(C(=O)NCc3ccncc3)nc(-c3cccc(-c4cccc(C#N)c4)c3)c2[C@H]1CCO`, the figure is inactive: 0.992; as for `Cn1c(S(=O)(=O)CC(N)=O)nc2ccccc21`, inactive: 1.03; as for `COc1cccc(C(=O)Nc2ccc3c(c2)C(=O)N(C)[C@H]2CC[C@H](CC(=O)NCC4CC4)O[C@H]2CO3)c1`, inactive: 1.01. Next, `Cc1noc(C)c1NC(=O)Nc1ccc2c(c1)C(=O)N([C@@H](C)CO)C[C@@H](C)[C@@H](CN(C)C(=O)Nc1cccc3ccccc13)OCCCC[C@@H](C)O2`: inactive: 0.997.

Source of the values: the supplement of paper PMC9446081.
